# ± gives the standard deviation of the averaged measurements. In all, about 33,000 sequences were measured (“E-score (dimensionless, -0.5 to 0.5)”: median about -0.049, highest 2% from about 0.37 on). Some of the results follow.
# System: T1, PmTbr T-box DNA-binding domain (GST fusion)
# T1 sequence: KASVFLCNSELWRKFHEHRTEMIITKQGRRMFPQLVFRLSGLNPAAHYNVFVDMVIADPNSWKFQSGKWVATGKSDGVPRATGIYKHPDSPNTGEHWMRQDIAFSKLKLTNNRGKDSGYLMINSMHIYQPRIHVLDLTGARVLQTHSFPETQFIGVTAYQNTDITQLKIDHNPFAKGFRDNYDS
# Assay: PBM E-score of 8-mer (E-score (dimensionless, -0.5 to 0.5)); Tbr is Tbrain of the sea star Patiria miniata (Pm) or the sea urchin Strongylocentrotus purpuratus (Sp); higher = stronger binding preference; most listed sequences are background and not binding sites
# Conditions: the construct has about 5 more residues each side
# How it was run: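 Primer extension turned Universal Agilent oligonucleotide arrays double-stranded. They were incubated with 200 nM protein in PBS (pH 7.5); the protein was a GST-fused Tbr T-box DNA-binding domain expressed in BL21 E. coli at 20 °C and purified on glutathione. Every ungapped 8-mer was scored from the scanned, quantified probe intensities, and the Universal PBM Analysis Suite gave each an enrichment E-score averaged over duplicate arrays.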
row,Sequence,PBM E-score of 8-mer
1,AAATCGGT,-0.0944 ± 0.035
2,ACTCGAGC,-0.3 ± 0.071
3,AACGTTTC,-0.177 ± 0.011
4,GGACGACA,0.0788 ± 0.045
5,CGCAGAAA,-0.0539 ± 0.012
6,GGTAGTGA,0.193 ± 0.015
7,CAGTAAAG,-0.0411 ± 0.0096
8,ATTGGCCC,-0.207 ± 0.014
9,CCGCGGAC,-0.0508 ± 0.069
10,AACTTAAA,-0.0777 ± 0.021
11,ATACTACA,-0.0455 ± 0.042
12,CACCAGCG,0.236 ± 0.0024
13,AATGAGAG,-0.317 ± 0.025
14,AACACTGT,0.275 ± 0.0073
15,CTTGCCCA,-0.255 ± 0.011
16,GACGGAAA,-0.0646 ± 0.034
17,ACACGGGG,-0.0262 ± 0.012
18,AGTCAGTG,0.114 ± 0.038
19,AGGAAACC,-0.125 ± 0.031
20,AAATTTCG,-0.127 ± 0.029
21,AGCAGCCT,-0.0537 ± 0.0035
22,GGGTAAAA,-0.317 ± 0.11
23,CCGTAAAA,-0.105 ± 0.11
24,GCATTCGA,-0.0584 ± 0.02
25,CAGCAAAA,-0.169 ± 0.048

row,Sequence,PBM E-score of 8-mer
1,CCCCCGCG,-0.14 ± 0.16
2,TCGTCTCA,0.0452 ± 0.0029
3,CTCTTACC,-0.225 ± 0.025
4,CACCAACG,0.2 ± 0.036
5,AAAGCTAC,0.0105 ± 0.049
6,CTCCTCTA,0.0746 ± 0.06
7,CTTAAAAC,-0.147 ± 0.058
8,CATTAAAG,-0.132 ± 0.047
9,CGCCGGCG,0.197 ± 0.0099
10,CGCTAGAC,0.0745 ± 0.041
11,ACAACACC,0.435 ± 0.023
12,AATCGGGT,-0.164 ± 0.034
13,CAGTCGTA,-0.298 ± 0.004
14,GTCTCGCA,0.262 ± 0.021
15,GAAGTACC,-0.379 ± 0.075
16,GGCCCCCC,-0.276 ± 0.0062
17,GAAATAGA,-0.125 ± 0.036
18,TATAGAAA,-0.229 ± 0.091
19,AAAGTACC,-0.19 ± 0.064
20,AGACCGTC,-0.153 ± 0.041
21,CCTCCGCG,0.0924 ± 0.03
22,ACATAGGC,-0.0488 ± 0.043
23,CCGATGTA,-0.1593 ± 0.00022
24,CTTCTACC,-0.154 ± 0.069
25,ATAGCCAC,-0.00905 ± 0.088

row,Sequence,PBM E-score of 8-mer
1,CTGCGGGC,-0.0237 ± 0.023
2,CTGCGGCC,-0.291 ± 0.039
3,GTTCGCAA,0.317 ± 0.019
4,AATATCAG,0.0529 ± 0.037
5,ACTATAGT,0.133 ± 0.026
6,ATCGAAAA,-0.034 ± 0.047
7,GCGTCACC,0.34557 ± 9.2e-05
8,CAGAAACG,-0.00987 ± 0.03
9,CTGAAATA,-0.00809 ± 0.053
10,AACCTTCC,-0.196 ± 0.038
11,TAATTACA,-0.0708 ± 0.048
12,AAAGTTTA,-0.12 ± 0.099
13,GATGAAAC,-0.0431 ± 0.065
14,CGGGCGCA,-0.0013 ± 0.07
15,GGTTTACA,0.168 ± 0.011
16,AAGGCCTG,-0.262 ± 0.0041
17,AGCGGGGC,-0.0481 ± 0.032
18,ACCATACG,-0.148 ± 0.05
19,AGCGAATG,-0.17 ± 0.021
20,ATTAGCTG,-0.041 ± 0.028
21,AAACATGC,-0.053 ± 0.048
22,AGTAACGC,0.239 ± 0.0096
23,CCATAAGA,-0.177 ± 0.0089
24,CTCATGAG,-0.111 ± 0.035
25,GAACTAGC,0.0984 ± 0.097

row,Sequence,PBM E-score of 8-mer
1,ATCCAAAA,-0.233 ± 0.056
2,GCTTCAGA,-0.127 ± 0.095
3,AATTGAAT,-0.0845 ± 0.071
4,CCACCACC,0.107 ± 0.044
5,ATCCGCGG,-0.0965 ± 0.013
6,CTACCACC,0.268 ± 0.0074
7,GTGACCCA,-0.0434 ± 0.014
8,CGTGCACG,-0.126 ± 0.035
9,GATGTTTA,-0.114 ± 0.014
10,ATAATAGA,-0.208 ± 0.038
11,CGACCACC,-0.16 ± 0.021
12,ATACACGA,-0.138 ± 0.038
13,AGACAGGC,-0.103 ± 0.03
14,AAGGTCCT,-0.0737 ± 0.044
15,AATCGAGT,0.0051 ± 0.016
16,CATACATA,-0.387 ± 0.045
17,CGATACCC,0.00442 ± 0.071
18,AATAACGA,0.131 ± 0.056
19,AGTGTTCG,0.21 ± 0.037
20,TCATAACA,0.1776 ± 0.0013
21,CCTTACGA,-0.143 ± 0.026
22,ATCTCTAA,-0.131 ± 0.051
23,TAAAATTA,-0.194 ± 0.065
24,AGAACCCG,0.111 ± 0.011
25,ATTTATCC,-0.14 ± 0.0033

row,Sequence,PBM E-score of 8-mer
1,CACATAGA,0.0565 ± 0.011
2,CACTCTCA,0.259 ± 0.044
3,GAAATTAA,-0.113 ± 0.044
4,ACAGATCA,0.119 ± 0.044
5,GGCGTGGA,0.0458 ± 0.046
6,CTCCGTTC,0.169 ± 0.076
7,AATCTAGC,0.123 ± 0.022
8,GCATCAGC,-0.11 ± 0.067
9,TAGCATCA,0.102 ± 0.046
10,TCCCAAAA,-0.287 ± 0.025
11,CACAGACC,-0.114 ± 0.099
12,CAAGCAGG,-0.3147 ± 0.0026
13,AATCTGAA,-0.329 ± 0.043
14,ACGGCCAA,-0.116 ± 0.11
15,AGCAACTC,0.00949 ± 0.024
16,CGTCTCGC,0.257 ± 0.005
17,ATCAGACC,0.018 ± 0.054
18,GATGTAGC,-0.2 ± 0.034
19,GGAAGTCC,-0.292 ± 0.066
20,AATGAGCT,-0.0566 ± 0.018
21,ATCGCAAC,0.264 ± 0.044
22,AATATGCA,-0.0525 ± 0.028
23,ACCTCTTA,0.0447 ± 0.086
24,AAAGGCTC,-0.232 ± 0.044
25,TCTCACAA,0.325 ± 0.0084

row,Sequence,PBM E-score of 8-mer
1,CTGATTCA,-0.0989 ± 0.028
2,GACTATCA,0.147 ± 0.0049
3,CGTCGATA,-0.0182 ± 0.033
4,ATCAAAAC,-0.00902 ± 0.088
5,CAGTTGGA,-0.0465 ± 0.014
6,GAAGAGTC,-0.306 ± 0.084
7,CCCTGATA,-0.24 ± 0.06
8,ACGGATGG,-0.025 ± 0.0085
9,ATGTTAAA,-0.165 ± 0.078
10,CATTGCCC,-0.223 ± 0.056
11,AGTAATCC,-0.239 ± 0.016
12,AGGGCGAG,-0.0619 ± 0.046
13,ACGAGGGC,-0.184 ± 0.0034
14,GCCTCATA,-0.0905 ± 0.06
15,ACTGGTCG,-0.222 ± 0.13
16,GACAGCAA,0.133 ± 0.07
17,CGGTAAAG,-0.102 ± 0.037
18,ACTCAAGC,-0.197 ± 0.065
19,GATCGCAC,0.42 ± 0.018
20,CTGGACCC,-0.302 ± 0.037
21,ACGATCTA,0.0459 ± 0.022
22,AGCGATTC,-0.182 ± 0.022
23,ATTTTATC,0.107 ± 0.12
24,AGAGGCCC,-0.223 ± 0.056
25,GCCAACCC,-0.13 ± 0.038

row,Sequence,PBM E-score of 8-mer
1,GAGGTTAA,-0.0997 ± 0.046
2,ACGCTACC,0.0696 ± 0.015
3,AAATACGA,-0.164 ± 0.022
4,ACTCCTTG,-0.0693 ± 0.038
5,AGTGAACG,0.0654 ± 0.058
6,CCATAGTA,-0.173 ± 0.019
7,CTGCTACC,0.0456 ± 0.037
8,CAATTACC,0.163 ± 0.0049
9,ATTCTCGA,-0.00943 ± 0.017
10,GCTTAGTA,-0.247 ± 0.053
11,ATCGTGAC,0.2 ± 0.0054
12,CTTCGGTC,-0.225 ± 0.053
13,ATCTAAAT,-0.0779 ± 0.077
14,CTTTCGCA,0.411 ± 0.015
15,AACTAAAC,-0.19 ± 0.01
16,CGCCGGAG,-0.0281 ± 0.046
17,GCCATCGA,0.0334 ± 0.092
18,CAGGAGGC,-0.0929 ± 0.013
19,CGGCAAAA,-0.0622 ± 0.057
20,CACGAGGC,0.0167 ± 0.00069
21,GGGGTCCA,-0.252 ± 0.075
22,ACGAGGCA,-0.249 ± 0.093

# Source: the supplement of paper PMC4166925
